Test results reported in PubChem BioAssay AID485360 (National Center for Advancing Translational Sciences (NCATS), 2010).
Hit rate of the full screen: of about 230,000 compounds, about 1,500 (0.65%) were called active. This list was built around the results that the source calls inconclusive (neither active nor inactive); the mix of calls is not that of the screen. The call rests on the fitted dose curve; in most records, active means well fitted inhibition curve with a large enough effect; inconclusive means small, poorly fitted or top-dose-only effect; inactive means no such curve, though single readings can be large or run the other way. Potencies beside an inconclusive call are fits to weak or partial responses and may not hold up.
Further: nearly all actives have a fitted effect of over 60% in size.
On the % scale 0 is the no-effect control and ±100 the full control effect; potency means the concentration at half of the fitted maximal effect; tags describe the fitted curve by direction and shape.

What follows are compounds tested against Lethal(3)malignant brain tumor-like protein 1 (Homo sapiens) (UniProt Q9Y468) (assay: qHTS Assay for the Inhibitors of L3MBTL1). Conditions: AlphaScreen L3MBTL1–H3K9me1 peptide binding; activity, negative = inhibition: at 57.1 µM (top of the series).
Chain of UniProt Q9Y468 (Q9Y468 whole entry, looked up): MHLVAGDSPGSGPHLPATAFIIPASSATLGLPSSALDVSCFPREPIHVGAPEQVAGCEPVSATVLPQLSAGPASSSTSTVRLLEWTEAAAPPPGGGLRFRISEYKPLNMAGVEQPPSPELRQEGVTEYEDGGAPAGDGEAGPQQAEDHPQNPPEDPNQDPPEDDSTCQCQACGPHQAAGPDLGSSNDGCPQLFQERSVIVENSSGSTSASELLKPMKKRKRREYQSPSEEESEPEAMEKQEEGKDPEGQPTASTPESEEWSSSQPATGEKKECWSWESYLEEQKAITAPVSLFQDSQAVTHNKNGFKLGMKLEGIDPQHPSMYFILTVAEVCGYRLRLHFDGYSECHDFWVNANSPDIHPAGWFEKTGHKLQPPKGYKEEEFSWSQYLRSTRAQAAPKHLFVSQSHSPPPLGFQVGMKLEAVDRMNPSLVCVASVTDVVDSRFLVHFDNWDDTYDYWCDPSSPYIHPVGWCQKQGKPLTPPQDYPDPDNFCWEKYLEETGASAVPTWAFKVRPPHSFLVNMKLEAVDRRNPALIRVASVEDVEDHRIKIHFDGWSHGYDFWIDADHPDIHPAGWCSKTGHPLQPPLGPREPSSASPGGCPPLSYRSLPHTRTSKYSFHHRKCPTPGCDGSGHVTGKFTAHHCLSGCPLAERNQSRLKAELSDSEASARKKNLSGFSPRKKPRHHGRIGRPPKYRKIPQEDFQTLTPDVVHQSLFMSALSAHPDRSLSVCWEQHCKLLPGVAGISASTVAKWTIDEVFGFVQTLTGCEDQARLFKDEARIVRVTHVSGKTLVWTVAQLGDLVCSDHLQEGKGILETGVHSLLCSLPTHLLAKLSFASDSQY
Procedure, shortened: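 First, the protein-peptide complex forms for 30 min at room temperature (L3MBTL1 50 nM, biotinylated H3K9me1 peptide 75 nM). Next, compounds are pin-transferred and incubated 30 min. Finally, AlphaScreen beads are added and read after 30 min.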
For `C[C@H]1CN([C@@H](C)CO)C(=O)c2cccc(NC(=O)C3CC3)c2O[C@H]1CN(C)Cc1ccncc1`, the “activity, negative = inhibition” value was inactive: 4.13%.
In the case of `Cc1occc1-c1nnc(-c2cc([N+](=O)[O-])cc([N+](=O)[O-])c2)o1`, the Potency is reported as inconclusive: 0.562 µM [inhibitor, partial curve].
In the case of `COc1ccc(OCc2nc(C#N)c(NCCCn3ccnc3)o2)cc1`, the Potency is reported as inconclusive: 25.1 µM [inhibitor, single point].
For `COc1cc(NCc2ccccc2)c2ncn(Cc3ccccc3)c2c1`, the Potency was inconclusive: 25.1 µM [inhibitor, single point].
For `CCN(CC)CCn1c2c(c(SCC(=O)Nc3cccc(C(C)=O)c3)nc1=O)CCCC2`, the Potency was inconclusive: 0.112 µM [inhibitor, full curve, poor fit].
In the case of `O=C(Nc1ccc(N=Nc2ccccc2)c(NC(=O)C2CCCO2)c1)C1CCCO1` (stereo not drawn), the Potency is reported as inconclusive: 14.1 µM [inhibitor, partial curve].
For `CCOC(=O)C1=C(C)N=c2s/c(=C\c3ccc(OCC(=O)O)cc3)c(=O)n2C1c1ccc(Cl)cc1` (stereo not drawn), the Potency was inconclusive: 31.6 µM [inhibitor, single point].
In the case of `Fc1ccc(F)c(C2=NNC(=NCC3CCCO3)SC2)c1` (stereo not drawn), the “activity, negative = inhibition” value is reported as inactive: -24.6%.
`CCCCC1CC1C(=O)Nc1ncc2c(n1)CC(C)(C)CC2=O` (stereo not drawn) was tested, and the Potency was inconclusive: 6.31 µM [inhibitor, single point].
With `COc1cccc2cc(C(=O)c3ccc([N+](=O)[O-])cc3)oc12` the Potency was inconclusive: 0.112 µM [inhibitor, full curve, poor fit].
In the case of `COc1ccc(CN2CCN(C(=O)c3cc(OC)c(OC)c(OC)c3)CC2)cc1OC`, the “activity, negative = inhibition” value is reported as inactive: 12.7%.
In the case of `CCOc1cc(/C=C2/C(=O)ON=C2C)ccc1OCc1ccccc1`, the Potency is reported as inconclusive: 22.4 µM [inhibitor, partial curve].
In the case of `Cc1ccc(NC(=S)N2CCCC(c3nc4ccccc4[nH]3)C2)cc1` (stereo not drawn), the “activity, negative = inhibition” value is reported as inactive: -3.66%.
For `Cc1ccc(-c2nn(-c3ccccc3)cc2C2SCC(=O)N2Cc2ccccc2)o1` (stereo not drawn), the “activity, negative = inhibition” value was inactive: -23.8%.
`CCOc1ccc(NC(=O)COC(=O)c2cc(C)oc2C)cc1` was tested, and the “activity, negative = inhibition” value was inactive: -2.15%.
For `Cc1cc(C)n(-c2nnc(N3CCN(c4ccc(F)cc4)CC3)nn2)n1`, the Potency was inconclusive: 5.62 µM [inhibitor, full curve, poor fit].
With `COc1ccc(N2CCN(c3cc(C)c4ccc(O)cc4n3)CC2)cc1` the Potency was inconclusive: 4.47 µM [inhibitor, full curve].
In the case of `CCN1CCN(CC(=O)N/N=C/c2cc(Br)cs2)CC1`, the activity, negative = inhibition is reported as inconclusive: -43.2% [inhibitor].
For `CCCN(CCC)c1nc(N)nc(-c2cc(Cl)ccc2OC)n1`, the Potency was inconclusive: 4.47 µM [inhibitor, single point].
`CCN(CC)c1ccc(C=Nc2cc(C)cc(C)c2)c(O)c1` was tested, and the “activity, negative = inhibition” value was inactive: -5.96%.
`CCOc1ccc(Br)cc1CNc1ccc2c(c1)OCCO2` was tested, and the Potency was inconclusive: 14.1 µM [inhibitor, partial curve].
For `C/C(=N\Nc1nc2ccccc2[nH]1)c1ccc(C)o1`, the “activity, negative = inhibition” value was inactive: -7.69%.
With `O=C(Nc1nc(-c2ccccn2)cs1)C1CCCC1` the Potency was inconclusive: 20 µM [inhibitor, partial curve].
With `CNC[C@H](O)c1ccc(O)c(O)c1` the activity, negative = inhibition was inconclusive: -82.3% [inhibitor].
For `CCc1ccc(N2CC(C(=O)N/N=C/c3cc([N+](=O)[O-])ccc3O)CC2=O)cc1` (stereo not drawn), the Potency was inconclusive: 15.8 µM [inhibitor, single point].
With `CCCNc1cc(=S)nc(N)[nH]1` the “activity, negative = inhibition” value was inactive: -23.3%.
With `O=C(NCCCn1ccnc1)c1nn2c(C(F)(F)F)cc(-c3ccc(Br)cc3)nc2c1Cl` the Potency was inconclusive: 28.2 µM [inhibitor, partial curve].
In the case of `COc1ccc(/C=C2/C(=O)N(c3ccccc3)N=C2C)cc1OC`, the Potency is reported as inconclusive: 17.8 µM [inhibitor, partial curve].
`c1ccc2c(c1)OCC(c1nn3c(Cn4nnc5ccccc54)nnc3s1)O2` (stereo not drawn) was tested, and the Potency was active: 35.5 µM.
With `Cc1ccc(-n2c(O)c(/C=N/Nc3ccc(S(=O)(=O)N4CCOCC4)cc3[N+](=O)[O-])c3ccccc3c2=O)c(C)c1` the Potency was inconclusive: 35.5 µM [inhibitor, single point].
For `C[N+]1(C2CCC3CCCC2C3O)CCCCC1` (stereo not drawn), the “activity, negative = inhibition” value was inactive: 18.5%.
For `Cn1c(-c2sccc2OCc2cccc(C(F)(F)F)c2)n[nH]c1=S`, the Potency was inconclusive: 15.8 µM [inhibitor, partial curve].
`O=C(NCCCN1CCOCC1)c1ccc(Br)s1` was tested, and the Potency was inconclusive: 5.62 µM [inhibitor, single point].
With `O=C(Nc1ccc2c(c1)OCO2)c1cc2nc(C3CC3)cc(C(F)(F)F)n2n1` the Potency was inconclusive: 22.4 µM [inhibitor, single point].
In the case of `CCCC(=O)Nc1nc(C)c(-c2csc(Nc3ccccc3C)n2)s1`, the “activity, negative = inhibition” value is reported as inactive: -3.97%.
In the case of `CCOC(=O)c1sc2nc(CSc3ccccc3)nc(N3CCC(C(N)=O)CC3)c2c1C`, the Potency is reported as inconclusive: 7.94 µM [inhibitor, partial curve].
With `Cc1n[nH]c(=S)n1-c1ccccc1` the “activity, negative = inhibition” value was inactive: -14.9%.
`Cc1nc2c3ccccc3nc(NNC(=O)CCC(=O)NCCC(C)C)n2n1` was tested, and the Potency was inconclusive: 39.8 µM [inhibitor, single point].
With `COC(=O)/C(=N/Nc1ccccc1C)N1CCCc2ccccc21` the “activity, negative = inhibition” value was inactive: -0.191%.
For `O=C(NCc1ccco1)c1cc2c(s1)CCCCC2`, the Potency was inconclusive: 35.5 µM [inhibitor, single point].
With `CN(C)c1ccc(C(=O)/C=C/c2ccccc2)cc1` the “activity, negative = inhibition” value was inactive: 11.5%.
For `COc1ccccc1N1CCN(c2ncnc3c2oc2ccccc23)CC1`, the “activity, negative = inhibition” value was inactive: 3.26%.
For `CC(=O)c1cccc(NC(=O)Cc2cccs2)c1`, the “activity, negative = inhibition” value was inactive: -13.4%.
In the case of `O=S(=O)(c1ccc(SCCO)nc1)N1CCOCC1`, the “activity, negative = inhibition” value is reported as inactive: 16.8%.
With `COc1cc2c(cc1OC)CN(C(=O)Cn1ccccc1=O)CC2` the Potency was inconclusive: 25.1 µM [inhibitor, single point].
`CCOc1ccc(S(=O)(=O)Nc2cc(SCC(=O)O)c(O)c3ccccc23)cc1` was tested, and the Potency was inconclusive: 31.6 µM [inhibitor, partial curve].
In the case of `COC(=O)C1=C(O)/C(=C\c2ccc(CNS(=O)(=O)c3ccccc3)o2)N=C1C`, the Potency is reported as inconclusive: 39.8 µM [inhibitor, single point].
`O=C(O)/C=C/c1ccc([N+](=O)[O-])o1` was tested, and the Potency was inconclusive: 35.5 µM [inhibitor, single point].
For `OC(CNCc1ccco1)COc1ccccc1` (stereo not drawn), the “activity, negative = inhibition” value was inactive: -1.5%.
With `CCC(=O)Nc1sccc1C(=O)OC` the “activity, negative = inhibition” value was inactive: -0.0117%.
For `CCCCn1c(N)c(N(CCOC)C(=O)COC(=O)CSc2cc(C)c3ccccc3n2)c(=O)[nH]c1=O`, the “activity, negative = inhibition” value was inactive: 11.4%.
`COc1cc(C2c3c([nH]c(=O)[nH]c3=O)Nc3ccc4ccccc4c32)ccc1O` (stereo not drawn) was tested, and the Potency was inconclusive: 0.141 µM [inhibitor, full curve, poor fit].
For `CCN(CC)c1ccc(NC(=O)c2cccc(C)c2)cc1S(=O)(=O)Nc1ccccc1OC`, the “activity, negative = inhibition” value was inactive: 0.561%.
For `COC(=O)c1cc(=O)n(Cc2cccs2)c(=Nc2ccccc2)s1`, the Potency was inconclusive: 25.1 µM [inhibitor, partial curve].
For `CCOC(=O)COc1cc(-n2c(=S)[nH]c3ccccc3c2=O)c(Cl)cc1Cl`, the Potency was inconclusive: 7.08 µM [inhibitor, partial curve].
In the case of `Cc1cccc2sc(NNC(=O)c3ccc(S(=O)(=O)N4CC(C)CC(C)C4)cc3)nc12` (stereo not drawn), the Potency is reported as inconclusive: 22.4 µM [inhibitor, single point].
`COc1ccc(NS(=O)(=O)c2cccc(C(=O)N/N=C/c3ccc(O)cc3)c2)cc1` was tested, and the “activity, negative = inhibition” value was inactive: -0.546%.
For `COc1cc([N+](=O)[O-])cc(/C=N/NC(=O)c2cccnc2)c1O`, the Potency was active: 14.1 µM.
With `O=C(c1ccccc1)N1CCN(c2ccc(NCc3ccc4c(c3)OCO4)cc2)CC1` the Potency was inconclusive: 39.8 µM [inhibitor, single point].
`Cc1noc(C)c1CSc1ccccc1C(=O)Nc1nccs1` was tested, and the Potency was inconclusive: 5.62 µM [inhibitor, full curve, poor fit].
In the case of `CCOc1ccc(S(=O)(=O)Nc2cccc(C(=O)NCC3CCCO3)c2)cc1` (stereo not drawn), the “activity, negative = inhibition” value is reported as inactive: 10.1%.
In the case of `Nc1nnc(CC(=O)N/N=C/c2cc([N+](=O)[O-])cc(Br)c2O)s1`, the Potency is reported as inconclusive: 39.8 µM [inhibitor, single point].
For `c1ccc2nc3c(nc2c1)[nH]c1ccccc13`, the “activity, negative = inhibition” value was inactive: 3.49%.
For `CCOc1cc(N2CCOCC2)c(OCC)cc1NC(=O)CSc1cccc[n+]1[O-]`, the Potency was inconclusive: 31.6 µM [inhibitor, single point].
With `O=C(c1nn2cccnc2c1Cl)N1CCN(c2ccccc2)CC1` the Potency was inconclusive: 7.08 µM [inhibitor, single point].
For `C=CCOC(=O)C1=C(C)NC(SCC(=O)Nc2nccs2)=C(C#N)C1c1ccc(Cl)cc1` (stereo not drawn), the Potency was inconclusive: 3.98 µM [inhibitor, single point].
With `COc1cccc(N/C(N)=N/c2nc(C(F)(F)F)cc(=O)[nH]2)c1` the Potency was inconclusive: 6.31 µM [inhibitor, single point].
For `CC1CCCC(C)N1C(=O)CSc1nc2ccccc2c(=O)[nH]1` (stereo not drawn), the Potency was inconclusive: 5.01 µM [inhibitor, partial curve].
For `COc1ccc(NC(=O)CN2CCC(C)CC2)cc1`, the activity, negative = inhibition was inactive: 24.4% [at 11.4 µM].
With `CSCCC(NC(=O)/C(=C\c1ccco1)NC(=O)c1ccco1)C(=O)O` (stereo not drawn) the activity, negative = inhibition was inconclusive: -32.1% [inhibitor].
`CC(C)Cn1c(N)c(C(=O)COC(=O)c2cc(-c3ccco3)nc3ccccc23)c(=O)n(C)c1=O` was tested, and the Potency was active: 8.91 µM.
For `CN(C)c1ccc(N=Nc2ccccc2C(=O)OCC(=O)N2CCCCCC2)cc1`, the Potency was inconclusive: 31.6 µM [inhibitor, partial curve].
With `CN(C)S(=O)(=O)c1cccc(NC(=O)COC(=O)c2ccc(Br)o2)c1` the “activity, negative = inhibition” value was inactive: -0.213%.
